{"source": "patent US8334239B2", "about": "“High affinity VEGF-receptor antagonists” (The Board of Regents of the University of Texas System, priority 2007, dated 2012)", "key": {"VEGFR2 [1]": {"biological_target": "T1, VEGFR2 (Homo sapiens, UniProt P35968)", "T1 sequence (P35968 20-1356)": "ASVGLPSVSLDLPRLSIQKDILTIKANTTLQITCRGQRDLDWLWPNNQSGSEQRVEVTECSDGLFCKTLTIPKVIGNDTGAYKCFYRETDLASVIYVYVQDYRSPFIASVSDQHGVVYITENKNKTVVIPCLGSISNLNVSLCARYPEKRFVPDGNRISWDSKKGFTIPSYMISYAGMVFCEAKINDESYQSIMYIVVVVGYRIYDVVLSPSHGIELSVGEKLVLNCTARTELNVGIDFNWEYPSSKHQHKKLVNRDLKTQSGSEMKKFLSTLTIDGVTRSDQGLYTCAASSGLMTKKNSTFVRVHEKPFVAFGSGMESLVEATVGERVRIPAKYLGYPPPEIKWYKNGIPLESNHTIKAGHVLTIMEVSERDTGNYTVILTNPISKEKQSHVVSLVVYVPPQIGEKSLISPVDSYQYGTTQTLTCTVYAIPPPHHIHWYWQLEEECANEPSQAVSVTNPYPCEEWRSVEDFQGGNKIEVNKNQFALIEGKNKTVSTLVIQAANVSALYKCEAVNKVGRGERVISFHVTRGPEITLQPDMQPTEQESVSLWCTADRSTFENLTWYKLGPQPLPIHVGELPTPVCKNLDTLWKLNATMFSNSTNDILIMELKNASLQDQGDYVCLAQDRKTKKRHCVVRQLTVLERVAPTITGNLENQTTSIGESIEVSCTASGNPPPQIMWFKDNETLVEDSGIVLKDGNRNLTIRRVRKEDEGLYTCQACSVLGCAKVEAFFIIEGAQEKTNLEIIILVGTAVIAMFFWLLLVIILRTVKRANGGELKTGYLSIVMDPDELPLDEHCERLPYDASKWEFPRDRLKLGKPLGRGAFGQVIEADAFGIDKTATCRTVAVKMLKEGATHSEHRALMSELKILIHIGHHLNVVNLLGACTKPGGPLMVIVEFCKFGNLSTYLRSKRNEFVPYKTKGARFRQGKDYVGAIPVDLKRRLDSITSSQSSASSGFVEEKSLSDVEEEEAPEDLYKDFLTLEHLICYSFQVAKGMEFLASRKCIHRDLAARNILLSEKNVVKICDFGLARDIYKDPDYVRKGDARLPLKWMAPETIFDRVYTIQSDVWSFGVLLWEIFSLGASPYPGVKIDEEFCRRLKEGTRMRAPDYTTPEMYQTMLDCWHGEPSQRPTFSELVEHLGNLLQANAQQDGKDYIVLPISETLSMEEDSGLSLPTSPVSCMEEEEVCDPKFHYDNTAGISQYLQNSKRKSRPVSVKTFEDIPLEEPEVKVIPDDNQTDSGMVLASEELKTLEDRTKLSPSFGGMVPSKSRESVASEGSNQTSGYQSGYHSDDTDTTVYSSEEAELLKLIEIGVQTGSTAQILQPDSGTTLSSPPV", "test": "VEGF-induced VEGFR2 autophosphorylation in PAE/KDR cells, Western blot", "type": "cell-based", "set-up": "allow the library to be screened against the full-length receptor in as natural an environment as possible; host or cells: PAE/KDR (porcine aortic endothelial cells expressing human KDR)", "conditions": "1.3 nM VEGF", "experimental": "Western blots. Experiments were conducted using PAE/KDR cells that were grown on 6-well plates. […] The blots were probed with Phospho-VEGF receptor 2 (Tyr1175) (19A10) rabbit monoclonal or Total VEGFR2 primary antibodies (Cell signaling) and HRP-conjugated secondary antibody (BioRad).\nFunctional characterization of the VEGFR2-binding peptoids. GU40C and GU40E were then tested for their ability to modulate VEGFR function. Of course, since the screen simply demanded binding of the peptoid to the receptor, it was not a given that this would be the case. […] Western blot analysis using phospho-VEGFR2-specific antibodies was then employed to monitor receptor activation.\nTo do so, the inventors examined the effect of the peptoid on VEGF-induced VEGFR2 autophosphorylation by Western blotting, as described earlier."}, "VEGFR2 [2]": {"biological_target": "T1, VEGFR2", "test": "ELISA-like binding assay, fluoresceinated peptoids on immobilized VEGFR2 extracellular domain", "set-up": "VEGFR2 extracellular domain (amino acids 1-764 fused to 6× histidine-tagged Fc of human IgG, via the peptide IEGRMD; R&D Systems); linker peptide IEGRMD (internal); Fc of human IgG (C); 6xHis (C); purchased R&D Systems", "conditions": "for Kd: ELISA-like assay, immobilized VEGFR2 extracellular domain", "experimental": "ELISA based binding assay. White, clear bottom 96-well plates (Corning Inc.) were coated with of 1 μg/ml recombinant human VEGFR2 protein (R&D Systems) using the sensitizing buffer (0.621 g NaHCO3 & 0.275 g Na2CO3 dissolved on 100 ml of ddH2O, pH=9.5) overnight at 4° C. Washed with 3×200 μl of wash buffer 1×PBS with 0.05% Tween-20 and blocked with Startingblock blocking buffer (Pierce). Added 50 μl of serial dilutions of FITC labeled peptoids dissolved in Startingblock blocking buffer to each well & allowed to react for 1 h at room temperature. Washed with 5×200 μl of wash buffer 1×PBS with 0.05% Tween-20 and remaining fluorescence was measured at 520 nm using the plate reader.\nThe isolated peptoids are VEGFR2 ligands. Two of the ‘hits’ from this screen, GU40C and GU40E (see FIG. 2) were resynthesized, both as free compounds and with C-terminal Cys (for C-terminal fluorescein tagging via maleimide chemistry), cleaved from the beads and purified to apparent homogeneity by reverse phase HPLC. […] The association of these peptoids with VEGFR2 was evaluated using an ELISA-like assay. A commercially available fusion protein containing the VEGFR2 extracellular domain (amino acids 1-764 fused to 6× histidine-tagged Fc of human IgG, via the peptide IEGRMD; R&D Systems) was plated into 96-well plates and then mixed with various concentrations of […] Fluorescein (FITC)-labeled peptoid. After washing away unbound peptoid, the remaining fluorescence emission signal was measured at 520 nm. In this assay purified VEGFR2 protein was used instead of the whole PAE/KDR cells that over express VEGFR2, in order to confirm these compounds were binding only to the receptor."}, "[3]": {"tested_on": "A673 (human Ewing's sarcoma) tumors"}, "HUVEC": {"tested_on": "HUVEC", "test": "HUVEC tube formation assay", "type": "cell-based, human", "conditions": "10 μM, 1.3 nM VEGF", "experimental": "HUVEC tube formation assay. Endothelial cell medium gel (ECM gel) was thawed overnight at 4° C. refrigerator and added 50 μl to each well of pre-chilled white, clear bottom 96-well plate. Incubated for 30 min to facilitate the gel formation. […] 150 μl of these treated cell suspension (20,000 cells) was added per well and incubated at 37° C. and visualized tube formation under the light microscope after 16 hours (10× magnification)."}}, "note": "Several values for one entry are separate records, joined by “and”; a condition that tells them apart may be missing. Equal values may be shown once. Entries after “also recorded” stand apart in the source; their conditions may differ. For some of these results: Part of at least one peptide drawing is inferred or uncertain, most often the ends. For some of these results: At least one structure is not confirmed: it was looked up by name or label, or the drawing left a doubt. Positions of bridges follow the written chain, without caps; N, C: chain ends. Non-standard residues stand in square brackets, D forms with d. Residues, ends and D or L forms follow the SMILES beside them. Chains are numbered I, II in the order given. *: point of attachment. Fluorescein(5-Mal) = O=C1OC2(c3ccc(O)cc3Oc3cc(O)ccc32)c2ccc(N3C(=O)CC(*)C3=O)cc21; Gly(N(CH2)2(3-indolyl)) = O=C(O)CNCCc1c[nH]c2ccccc12; Gly(N-piperonyl) = O=C(O)CNCc1ccc2c(c1)OCO2; Nrpe = C[C@@H](NCC(=O)O)c1ccccc1; NFurfurylGly = O=C(O)CNCc1ccco1; Gly(N-CH2CH2OH) = O=C(O)CNCCO; Nleu = CC(C)CNCC(=O)O; Nlys = NCCCCNCC(=O)O; Ahx = NCCCCCC(=O)O; Nme = COCCNCC(=O)O; βAla = NCCC(=O)O", "data": [{"molecule": "CC(C)CN(CC(=O)N(CCCCN)CC(=O)N(CC(=O)N(CC(=O)N(CCCCN)CC(=O)N(CC(=O)N(CCCCN)CC(=O)N(CCCCN)CC(=O)NCCCCCC(=O)NCCC(=O)N[C@@H](CCCCNC(=O)CN(CCCCN)C(=O)CN(CCCCN)C(=O)CN(CC(C)C)C(=O)CN(CCCCN)C(=O)CN(Cc1ccc2c(c1)OCO2)C(=O)CN(C(=O)CN(CCCCN)C(=O)CN(CC(C)C)C(=O)CNCCCCN)[C@H](C)c1ccccc1)C(=O)N[C@@H](CSC1CC(=O)N(c2ccc3c(c2)C(=O)OC32c3ccc(O)cc3Oc3cc(O)ccc32)C1=O)C(N)=O)CC(C)C)Cc1ccc2c(c1)OCO2)[C@H](C)c1ccccc1)C(=O)CNCCCCN", "note": "(stereo partly shown) [GU40C4] (I: H-[Nlys][Nleu][Nlys][Nrpe][Gly(N-piperonyl)][Nlys][Nleu][Nlys][Nlys][Ahx][βAla]KC(Fluorescein(5-Mal))-NH2 / II: H-[Nlys][Nleu][Nlys][Nrpe][Gly(N-piperonyl)][Nlys][Nleu][Nlys][Nlys]; amide I:12-II:C)", "values": [{"measurement": "IC50", "setting": "VEGFR2 [1]", "value": "~900 nM and ~1000 nM and 900 nM"}]}, {"molecule": "CC(C)CN(CC(=O)N(CCCCN)CC(=O)N(CCCCN)CC(=O)NCCCCCC(=O)NCCC(=O)N[C@@H](CCCCNC(=O)CN(CCCCN)C(=O)CN(CCCCN)C(=O)CN(CC(C)C)C(=O)CN(CCCCN)C(=O)CN(CC(C)C)C(=O)CN(CCCCN)C(=O)CN(Cc1ccco1)C(=O)CN(CCCCN)C(=O)CNCCc1c[nH]c2ccccc12)C(=O)N[C@@H](CSC1CC(=O)N(c2ccc3c(c2)C(=O)OC32c3ccc(O)cc3Oc3cc(O)ccc32)C1=O)C(N)=O)C(=O)CN(CCCCN)C(=O)CN(CC(C)C)C(=O)CN(CCCCN)C(=O)CN(Cc1ccco1)C(=O)CN(CCCCN)C(=O)CNCCc1c[nH]c2ccccc12", "note": "(stereo partly shown) [GU40E4] (I: H-[Gly(N(CH2)2(3-indolyl))][Nlys][NFurfurylGly][Nlys][Nleu][Nlys][Nleu][Nlys][Nlys][Ahx][βAla]KC(Fluorescein(5-Mal))-NH2 / II: H-[Gly(N(CH2)2(3-indolyl))][Nlys][NFurfurylGly][Nlys][Nleu][Nlys][Nleu][Nlys][Nlys]; amide I:12-II:C; N-terminus assumed)", "values": [{"measurement": "Kd", "setting": "VEGFR2 [2]", "value": "129 ± 12", "unit": "nM"}]}, {"molecule": "CC(C)CN(CC(=O)N(CCCCN)CC(=O)N(CCCCN)CC(=O)NCCCCCC(=O)NCCCCCC(=O)N[C@@H](CCCCNC(=O)CN(CCCCN)C(=O)CN(CCCCN)C(=O)CN(CC(C)C)C(=O)CN(CCCCN)C(=O)CN(CC(C)C)C(=O)CN(CCCCN)C(=O)CN(Cc1ccco1)C(=O)CN(CCCCN)C(=O)CNCCc1c[nH]c2ccccc12)C(=O)N[C@@H](CSC1CC(=O)N(c2ccc3c(c2)C(=O)OC32c3ccc(O)cc3Oc3cc(O)ccc32)C1=O)C(N)=O)C(=O)CN(CCCCN)C(=O)CN(CC(C)C)C(=O)CN(CCCCN)C(=O)CN(Cc1ccco1)C(=O)CN(CCCCN)C(=O)CNCCc1c[nH]c2ccccc12", "note": "(stereo partly shown) [GU40E5] (I: H-[Gly(N(CH2)2(3-indolyl))][Nlys][NFurfurylGly][Nlys][Nleu][Nlys][Nleu][Nlys][Nlys][Ahx][Ahx]KC(Fluorescein(5-Mal))-NH2 / II: H-[Gly(N(CH2)2(3-indolyl))][Nlys][NFurfurylGly][Nlys][Nleu][Nlys][Nleu][Nlys][Nlys]; amide I:12-II:C)", "values": [{"measurement": "Kd", "setting": "VEGFR2 [2]", "value": "230 ± 39", "unit": "nM"}]}, {"molecule": "COCCNCC(=O)N(CCOC)CC(=O)N(CCO)CC(=O)N(CCOC)CC(=O)N(CCOC)CC(=O)N(CCO)CC(=O)N(CCOC)CC(=O)N(CCO)CC(=O)N(CCO)CC(N)=O", "note": "[control peptoid, Nmea-Nmea-Nser-Nmea-Nmea-Nser-Nmea-Nser-Nser, reference compound] (H-[Nme][Nme][Gly(N-CH2CH2OH)][Nme][Nme][Gly(N-CH2CH2OH)][Nme][Gly(N-CH2CH2OH)][Gly(N-CH2CH2OH)]-NH2)", "values": [{"measurement": "tumor growth", "setting": "[3]; 800 μg total by subcutaneous osmotic pump over 20.8 days", "value": "did not differ"}, {"measurement": "tumor necrosis (H&E histology)", "setting": "[3]; day 22", "value": "not"}, {"measurement": "competition with fluoresceinated GU40C and GU40E for binding to VEGFR2", "setting": "VEGFR2 [2]; labeled peptoids 1 μM, control peptoid 10 μM", "value": "did not compete; also recorded: No significant disruption"}, {"measurement": "effect on VEGF-induced HUVEC tube formation", "setting": "HUVEC", "value": "no detectable effect"}]}]}
